Experimental data taken from the supplement of paper PMC11417369.
Some of the results follow.

Each sequence was assayed on PF3D7_0420300 AP2 domain 1 (GST-tagged) (assay: gcPBM binding intensity (ln(normalized median fluorescence intensity)); higher = stronger DNA binding).
In short: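 The highest Masliner-normalised natural-log median intensity across replicate spots of either probe orientation is reported as binding intensity. GST-tagged P. falciparum DNA-binding domains expressed in E. coli were applied for 1 h to an Agilent 4 × 180k array of primer-extended double-stranded 36-bp intergenic genomic probes plus negative controls, and bound protein was detected with Alexa488 anti-GST antibody and scanned at 488 nm.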

| Sequence | gcPBM binding intensity (ln) |
| --- | --- |
| TACAACCTTATAATTAGTACTTAGTTATGCTGTAAA [XGTACX_site6052] | 9.08 |
| TTTAATTTTTTTTATAGTACATAAAAAATAAAAAAA [XGTACX_site5631] | 8.75 |
| TTTATTTGTGCATATACACACTTAAATATGTTTATT [CACACA_site7772] | 9.52 |
| ATTATAATACTTTGTATGCACTAATCAATTATTAAA | 9.01 |
| CCGATATAATGGAAAACACACAAAAGATATTTATAT [CACACA_site7293] | 9.54 |
| ACATAAAATTGGAGCAAACACACAAGGTTGAAATTA [CACACA_site505] | 9.65 |
| TTTGTTATGGTTTTCTCACACATATATATATATATA [CACACA_site4617] | 9.5 |
| CCTCATAAGTTCTTATGTACGTATTGTTCACCTTTA [XGTACX_site6640] | 9.37 |
| CTGTAAAAAATATAAACACACATAGAAATATATAAA [CACACA_site340] | 9.59 |
| TTAATAATAAAAAGGAGTACACTAATATACTATAAA [XGTACX_site2346] | 9.32 |
| TTAAGAAACAAAGAAAGTACACAACATAATATAGAA [XGTACX_site477] | 9.75 |
| ATATAATATATATATAAACACACAAAAAAAATTATA [CACACA_site8434] | 9.63 |
| AATAAAATCATCTATACACACAAAAAAAATAAGAAA [CACACA_site2101] | 9.86 |
| AATAACCACGGACACACACACATATATATATATATA [CACACA_site5873] | 9.92 |
| TATTTAAATTTGTATAATGGACGAATTATATAGAAA [GTGCAC_negctrl_site650] | 9.07 |
| CCCACAGACGGACACACACACATATATATATATATA [CACACA_site4351] | 9.81 |
| GAATTATAAATTATAGTGCATAAAATTATGGCATAA [GTGCAC_site9938] | 9.03 |
| TCAAAACATTATTCCATACACACCATACTTTTTAAT [CACACA_site2770] | 9.51 |
| TTGAATTATAAGAATAAACACACAAGCTTAAAAAAA [CACACA_site8318] | 9.29 |
| TATATATTATATATATGTACTTATTCATATATATAA [XGTACX_site3860] | 9.06 |
| CTTTAATATATTTAAGTGCAAAACTAATATGTAAAG | 9.19 |
| AAAGAAAAAGAAAAAGAAAAAATAAAATAAAATAAA [CACACA_negctrl_site872] | 9.14 |
| TATTTAAAAACAAAAAGTACTAATATATATTTATAC [XGTACX_site1422] | 9.14 |

| Sequence | gcPBM binding intensity (ln) |
| --- | --- |
| AGTAGTATGGAGAAAAGTACATAGTATCTGATAACC [XGTACX_site2040] | 9.39 |
| GACTGAACAACATAATGTACATTTATAAGTATATAT [XGTACX_site3813] | 9.33 |
| TAAAAAATAAAATACACACACATATATATATATATA [CACACA_site1323] | 9.51 |
| TATATTCTTTTTTTAACACACAAAAAAAATAAAATA [CACACA_site1898] | 9.19 |
| GAGGGAAAAAATAATCGTACAAAGAAAAAAAAAAAT [XGTACX_site7361] | 9.42 |
| AAAAAAATTAAAGATTGTACTTGATTTTTCATTTTA [XGTACX_site6685] | 8.97 |
| TTTTTTTCATAAATTAGGTAATGTCGCAGGGGGACA [TGCATGCA_negctrl_site556] | 9.29 |
| AAAGAATTGTATAAAAGTACATATTTGTTTGTTTTA [XGTACX_site7380] | 9.13 |
| ATTTATTAAAAGAAATGTACAGAAAATGTTTGGAAT [XGTACX_site7187] | 9.26 |
| AAGAAAAAAAAGATAATAATAATAATAATAAAATGA [TGCATGCA_negctrl_site398] | 9.41 |
| TATATGGTATGTATTACACACATATCACATATATAT [CACACA_site3045] | 9.57 |
| TGGTAAATTGAGAATCGTACATTAAAAAACATAAAA [XGTACX_site3253] | 9.25 |
| GGAATGGTACATGATACACACACGCACATATAAATA [CACACA_site7581] | 9.74 |
| TTTTCTATATAGTGTTGTACATTATTGTGTAAAAAT [XGTACX_site3223] | 9.21 |
| ATATTTTATACTTGCACACAAAATATATTAAAATGG [CACACA_site5139] | 9.34 |
| ATAAAATTGGAGCAAACACACAAGGTTGAAATTAAC [CACACA_site506] | 9.72 |
| TTATGTTGTAAATGCACACATACAAATACATATACA [CACACA_site1368] | 9.33 |
| TACAATATAAAATACACACGCACACCGAAAAAAAAA [CACACA_site5865] | 9.92 |
| GATAAAATGAGACCAGTGCATTATTAGTTGTACACC | 9.44 |
| TTTTTTGCTAAGTGTACACAAATGTTTATTAATTTA [CACACA_site5859] | 9.29 |
| TATACATATTTATACACACACACATATATTTATATA [CACACA_site6727] | 10 |
| TGTGCTTATCCTAACACACACAACATATAAGAAAAA [CACACA_site3319] | 9.58 |
| AAAAAATAAAAAATATGTACACATTCAAAATTTTAC [XGTACX_site8479] | 9.21 |

| Sequence | gcPBM binding intensity (ln) |
| --- | --- |
| AAAAAGAAAAAAAACACACACAAATATAAATAAATA [CACACA_site1183] | 9.98 |
| ATATATATATATATATGTACATATTACATTACTTAT [XGTACX_site749] | 9.35 |
| ATAAAACAAGCAAATCGTACAAAAGGATAATATATA [XGTACX_site5592] | 9.77 |
| AAAAAAAAAAAAAACACACACACACCCATACCCATA [CACACA_site5577] | 10.1 |
| ATGTATGGTTTATATGTTCATTTGTTCACCTATTTA [CACACA_negctrl_site1533] | 9.93 |
| ATATATATTTAAGAGGGTACAAAAATTTATGAGCAT [XGTACX_site6156] | 9.34 |
| TCTTTGGTAATATATATGTATAAATATAAATATATA [CACACA_negctrl_site1566] | 9.01 |
| ATATATATATATGTTAGTACATAACAAGTGTGCATA [XGTACX_site1527] | 9.44 |
| ATATACAAAGAAGCAGTGCATATTTTCTTATTTATG [GTGCAC_site9567] | 9.18 |
| TGAAAGAATAGAATGAGTACTAATTTAAATTACACT [XGTACX_site1120] | 9.29 |
| TTCTTTATATATTTTTGTACATATTTATTTTTAGAG [XGTACX_site6757] | 9.45 |
| TTGATTTCATTTTAAGTGCATAACTAATATTATATA [GTGCAC_site9713] | 9.14 |
| TAAGTACGACTTGACACACATACACATATATATATA [CACACA_site1286] | 9.5 |
| CAAATACACCAACACACACACACAAAAAAAAAAAAA [CACACA_site514] | 9.98 |
| ATTACCAACAGATCTTGTACATATTAAAGCATCTTA [XGTACX_site2361] | 9.12 |
| CTATTCTATTTTTATTGTACATATATATAATTTGAA [XGTACX_site389] | 9.31 |
| AAAAAAATATAAATACGTACATATATATATATATAT [XGTACX_site432] | 9.21 |
| TGGAATAATACGCGTACACACATATAAATATTAATA [CACACA_site6211] | 9.58 |
| ATATAATGGCTAAATAGTACAATATAATATTTTTTA [XGTACX_site8922] | 9.17 |
| ACACATGAATATTGTAGTACGGCAATTAATATAATA [XGTACX_site4589] | 9.39 |
| AGAAAGGAAAAAACCTCACACATGCTTTTAATAGTA [CACACA_site4602] | 9.27 |
| ACTATATATATAAGTGCATGTTCATTATACCTAAAG [TGCATGCA_site696] | 9.22 |
| AGTAAATTATATATCTGTACATATATATATGTGTAT [XGTACX_site5519] | 9.48 |

| Sequence | gcPBM binding intensity (ln) |
| --- | --- |
| TTTTAAAAAAATATAATACACACCAAAAATATGCAC [CACACA_site2131] | 9.55 |
| AAAAATTCATTTTTATGTACGTACAAATTCTTCGTT [XGTACX_site2471] | 9 |
| CTCACAAATGAATACACACAAACATATATATTTATA [CACACA_site1620] | 9.64 |
| AATCTATATTAATACACACACACATATATTTATATA [CACACA_site7732] | 10.1 |
| TTTATTTTGACAGATTGTACACTTTATACATGTTTT [XGTACX_site2356] | 9.59 |
| TGAAAAAAGAAAAATACACACATATAACATAATATA [CACACA_site7126] | 9.83 |
| GTATATATTTCCAGAAGTACTTATTTTTATGTATGT [XGTACX_site4079] | 9.36 |
| TTATATTTATTGATATGTACATATTATAATTAATTA [XGTACX_site586] | 9.08 |
| TTTTAATATTTTGCCTGTACATAAAAGTGAGAAGAT [XGTACX_site2503] | 9.33 |
| AAAAATGCCAGAAAACGTACTCGGATTTTCTAATAT [XGTACX_site6552] | 9.17 |
| TGATTACATATGATGTGTACCTAATTTTGTTTACAC [XGTACX_site7032] | 9.34 |
| TATAAAGGTTGGTACTGTACAATATAAGAAAAAAAA [XGTACX_site435] | 9.23 |
| AAATAGTTCATAAAAAGTACAAAATTTTTATCCGTA [XGTACX_site2796] | 9.26 |
| ATCATTCATTTAACAACACACAACATATTTATCATA [CACACA_site1041] | 9.64 |
| TATATATTATATAAGAGTACATATAATTATAGTTTT [XGTACX_site5039] | 9.11 |
| TTTTTTATATTGTGATGTACAAATTTTAAAATGTAG [XGTACX_site1875] | 8.94 |
| GTGTGGAGTTACAAAGAGGAGAACCTCACAGTAATC [CACACA_negctrl_site527] | 9.18 |
| AAATTCGTTATAAAAACATGCAACGATCAACATTGT [TGCATGCA_site844] | 9.3 |
| TTACTCTTTATATAATGTACATATATATATATATTA [XGTACX_site2624] | 9.31 |
| TTATGTGATAAAAAAAAAATACAACAAAGTTAAATA [GTGCAC_negctrl_site36] | 9.23 |
